Measurements taken from the BET-seq Pho4 binding data (Le et al. 2018).
Some of the results follow. The energies were worked out here from pooled read counts, against the library average; single values are noisy.

Target: T1, Pho4 (S. cerevisiae) (UniProt P07270)
T1 sequence: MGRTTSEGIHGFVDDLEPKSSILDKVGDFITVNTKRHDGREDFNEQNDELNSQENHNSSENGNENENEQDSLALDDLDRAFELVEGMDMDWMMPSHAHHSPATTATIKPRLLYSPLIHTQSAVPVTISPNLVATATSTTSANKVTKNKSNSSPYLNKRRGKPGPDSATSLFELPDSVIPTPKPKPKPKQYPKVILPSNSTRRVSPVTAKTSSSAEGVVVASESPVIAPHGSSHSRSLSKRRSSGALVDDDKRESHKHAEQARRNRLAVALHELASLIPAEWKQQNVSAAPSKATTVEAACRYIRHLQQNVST
Experiment: relative binding free energy (BET-seq); higher = weaker binding
Details: reference: library average

Sequence	relative binding free energy [kcal/mol]
TGCATCACGTGTGGGC	0.19
ATGGTCACGTGTGCAG	0.13
GGGATCACGTGACTGT	0.22
TTTTACACGTGCATTG	0.05
TGGAACACGTGGGAGG	-0.06
GAGTTCACGTGGGCGT	0.31
TGTGTCACGTGATGAG	0.18
GTGGTCACGTGATAGA	0.28
GGTTCCACGTGTGTTA	0.22
GGTTGCACGTGGATTC	0.07
AAGACCACGTGTAGGG	0.06
GTGCGCACGTGGGGGC	-0.26
CAGGTCACGTGTTGAG	0.07
AGTTTCACGTGTCCGG	0.22
ATTAGCACGTGGTATA	-0.17
TGTCTCACGTGGGTTC	0.13
CTTGCCACGTGTTTTT	-0.04
TTTGACACGTGTAGTG	0.03
TAGTGCACGTGTTTTT	0.07
AATTGCACGTGGTGAA	0.07
TTGTTCACGTGGGTTC	0.24
GGCGTCACGTGATAGG	0.27
TAGATCACGTGTCGTA	0.2

Sequence	relative binding free energy [kcal/mol]
GTATACACGTGTGCGT	-0.08
GTATTCACGTGTCGGG	0.25
TTTGACACGTGGGGTC	0
ATGATCACGTGGATGA	0.17
CTAGGCACGTGGGTGG	-0.26
ATGGACACGTGTGGAG	0.07
GAGGGCACGTGTGATC	0.06
TTGGGCACGTGTGCAT	-0.06
ATGTTCACGTGCTGGA	0.14
CGTTCCACGTGAAGGT	0.36
ATTTTCACGTGGCAGT	0.26
TTATTCACGTGAGGCT	0.19
GAGTTCACGTGAAGTG	0.33
ATTGGCACGTGGAGAA	-0.08
AGTAGCACGTGTTAAT	0.02
GATGGCACGTGCAATG	0.02
TTGGGCACGTGCTGTA	-0.25
GTGTACACGTGTGTTG	0
GATAACACGTGGCGGT	0.03
TTGGACACGTGTTAAA	0.2
ATGTTCACGTGTGGCA	0.36
TTTATCACGTGGGGGG	0.05
AGTAACACGTGGTAGA	0.05

Sequence	relative binding free energy [kcal/mol]
TTGGCCACGTGTGAGT	0.08
GAGGGCACGTGTTTTA	-0.01
CGGGGCACGTGGGTAG	-0.25
TTTTGCACGTGATGAG	0.15
TAACTCACGTGTGTGT	0.13
AATAGCACGTGGCTTG	0
TCGGTCACGTGAGTAA	0.24
TTGTACACGTGGGGTT	-0.04
GTTTTCACGTGATAAG	0.32
ATGGCCACGTGGTTTA	0.03
AGGGTCACGTGGGTCC	-0.13
TTAGCCACGTGATGTA	0.04
GGAGTCACGTGGAGTT	0.04
GGTATCACGTGTTGGT	0.29
ATGAACACGTGGTAAT	0.1
TGAAACACGTGTATGG	-0.02
ACAGTCACGTGATGTG	0.31
TTAAACACGTGGAGGA	0.05
GCGTTCACGTGGGTGT	0.19
GGGCGCACGTGGACGT	0.02
GGAAGCACGTGTAGGA	-0.22
ATTCGCACGTGGTTTA	-0.21
CTGTGCACGTGTGATG	0.13

Sequence	relative binding free energy [kcal/mol]
TTTAACACGTGTGAGT	0.05
GGTTGCACGTGATTGA	0.34
TCCTGCACGTGGGTGT	-0.21
ATTTTCACGTGTGCTA	0.22
CTGGTCACGTGTATTA	0.03
GGGTCCACGTGAGTGC	0.18
TCATGCACGTGATTTG	0.14
TGGGGCACGTGATGGG	-0.01
AGTTCCACGTGGCTGT	0.05
GTATGCACGTGTCAGA	0.2
GATCTCACGTGTGGCG	0.38
GCATGCACGTGGCGTT	-0.05
TCGGTCACGTGAGTTG	0.34
GAAAGCACGTGGTTAT	-0.15
GGGGACACGTGCCGTG	0.07
GGGTGCACGTGCGTTA	-0.16
GGACGCACGTGTTGAT	0.08
GCATTCACGTGTTGTA	0.17
ATGTACACGTGGTGAT	0.08
CCTGTCACGTGAAGGG	0.32
TGTTTCACGTGGAACG	0.33
GGTTCCACGTGTGTAG	0.15
ATTGTCACGTGTATGA	0

Sequence	relative binding free energy [kcal/mol]
GGTTTCACGTGAATTA	0.34
GGCAGCACGTGAAGGG	0.29
AATTGCACGTGGAGGA	0.05
TTGAGCACGTGAGTTG	0.13
GGAGGCACGTGTGTGC	-0.04
AGCGGCACGTGGAGTG	-0.11
TGTTACACGTGCTCGT	-0.02
TCTGGCACGTGGAAAG	0.09
TGTCTCACGTGGGGTG	0.03
AGTATCACGTGCGCGT	-0.01
AGTATCACGTGTAGCA	0.15
TTAGGCACGTGCTTTA	-0.15
TTGAGCACGTGGGTGA	-0.25
ATTGGCACGTGGGAGC	-0.03
TGTGTCACGTGAGTGC	0.2
TTAGACACGTGTTCGA	0.07
CGAGGCACGTGGGTAT	-0.16
AGAGACACGTGCTGGT	0.01
TTGTCCACGTGATCGG	0.08
TCAGGCACGTGATATG	0.11
GGTGCCACGTGTTCTG	0.02
TTAATCACGTGAATTA	0.31
GCCGGCACGTGCGTGG	-0.18
